SMILES strings stand for the structures. Whole data set: some 110,000 compounds, median “z-score” near -0.1, cut for the highest 2% near 2. The list shows a part of the results. Active and inactive are the calls of the source.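 Rule for the calls: active = z-score in the third read window above 3 or below -3; inactive = the rest.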

The target of this experiment is Metabotropic glutamate receptor 8 (Rattus norvegicus) (UniProt P70579). In words: mGluR8 Gi/Go-coupled signaling modulation – cell-based, rat, thallium flux, HTS, primary screen (AID 488969). Conditions: HEK293 rat mGluR8, GIRK (G protein-gated inwardly rectifying potassium channel) thallium flux, FluoZin2; at 10 µM; stronger effect = higher value; submaximal glutamate (EC20) added with thallium.
Chain of UniProt P70579 (P70579 whole entry, looked up): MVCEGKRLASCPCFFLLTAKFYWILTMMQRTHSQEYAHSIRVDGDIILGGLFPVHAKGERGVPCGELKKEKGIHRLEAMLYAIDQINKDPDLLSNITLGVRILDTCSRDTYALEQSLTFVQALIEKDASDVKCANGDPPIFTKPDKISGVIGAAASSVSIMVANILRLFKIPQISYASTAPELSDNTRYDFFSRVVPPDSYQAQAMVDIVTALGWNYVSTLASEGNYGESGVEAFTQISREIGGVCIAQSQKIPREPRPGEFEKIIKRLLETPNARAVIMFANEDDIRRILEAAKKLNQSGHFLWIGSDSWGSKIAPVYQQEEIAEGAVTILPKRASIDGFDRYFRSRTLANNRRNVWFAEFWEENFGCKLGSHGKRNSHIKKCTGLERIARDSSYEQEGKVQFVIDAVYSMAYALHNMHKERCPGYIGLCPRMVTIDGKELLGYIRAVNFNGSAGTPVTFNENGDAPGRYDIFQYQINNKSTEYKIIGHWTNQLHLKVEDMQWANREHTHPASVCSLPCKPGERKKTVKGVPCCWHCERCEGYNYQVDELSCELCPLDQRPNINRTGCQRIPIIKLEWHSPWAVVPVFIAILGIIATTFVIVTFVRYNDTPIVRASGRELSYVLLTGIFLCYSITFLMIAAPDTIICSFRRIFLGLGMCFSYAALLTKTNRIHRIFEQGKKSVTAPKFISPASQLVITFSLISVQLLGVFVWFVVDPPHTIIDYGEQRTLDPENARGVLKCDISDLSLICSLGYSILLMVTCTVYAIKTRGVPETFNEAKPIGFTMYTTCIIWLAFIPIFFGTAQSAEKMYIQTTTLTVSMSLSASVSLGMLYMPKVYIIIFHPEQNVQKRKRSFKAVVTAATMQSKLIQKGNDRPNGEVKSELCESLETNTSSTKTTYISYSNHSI
In the case of `COc1cc(NC(=O)NCCN2CCN(c3ccc(Cl)cc3)CC2)ccc1C`, the z-score was 0.588.

The molecule `CC1CC(C)CN(C(=O)COC(=O)CCc2nc3ccccc3c(=O)[nH]2)C1` (configuration not stated) came in with a z-score of -0.21.

`CCOc1ccc(N2C(=O)/C(=C/c3cccs3)N(C)C2=S)cc1` displayed a z-score of -0.138.

With `CC(C(=O)Nc1sc2c(c1C(=O)NCC1CCCO1)CCC2)N1C(=O)c2ccccc2C1=O` (configuration not stated), the z-score was -1.

`O=C(NNC(=O)C1CCCO1)c1ccc(Br)cc1` (configuration not stated) had a z-score of -0.0366.

As to `Cc1cc(NC(=O)COc2ccc(Cl)cc2Cl)n(-c2ccccc2)n1`, the z-score is active: 12.2.

Take `COc1cc(C(=O)Nc2cc(Cl)ccc2C)c(-n2cnnn2)cc1OC`: the z-score was determined as 0.269.

As for `O=C1Nc2ccccc2C12Nc1ccccc1S2` (configuration not stated), the z-score was -0.475.

`COc1ccc(/C=N\NC(=O)c2nn(C)cc2Cl)cc1CN1CCOCC1` showed a z-score of -0.182.

`COc1ccc(S(=O)(=O)Nc2ccc(F)cc2)c(C)c1C` displayed a z-score of 0.12.

Consider `CSc1nc(Cc2ccc(Cl)cc2)nc2ccccc12`, for which the z-score is 0.221.

In turn, `O=C(Nc1ccc(Cl)c(Cl)c1)OCc1cnc(Cl)s1` displayed a z-score of -0.164.

With `CCCn1nc(C(=O)Nc2ccc(S(=O)(=O)Nc3nccs3)cc2)c2ccccc2c1=O`, the z-score is -0.771.

In turn, `O=C1CC(N2CCN(Cc3ccc4c(c3)OCO4)CC2)C(=O)N1c1ccccc1` (configuration not stated) yielded a z-score of -0.354.

The molecule `CCOc1ccc(S(=O)(=O)N(C(=O)c2ccco2)c2cc3sc(=O)oc3c3ccccc23)cc1` registered a z-score of -0.337.

`CC(C)CNC(=O)CC(NCC(C)C)C(=O)O` (configuration not stated) showed a z-score of 0.0969.

`O=C(C(Cl)Cl)N1c2ccccc2OCC1c1ccccc1` (configuration not stated) yielded a z-score of -0.649.

Take `CCCn1c(SCC(=O)NCc2cccs2)nc2c1c(=O)n(C)c(=O)n2C`: the z-score was -0.364.

As to `Nc1nnc(SCC(=O)N2CCN(c3ccccc3)CC2)s1`, the z-score was 0.237.

Take `O=C(Nc1ccc(S(=O)(=O)N2CCOCC2)cc1)c1cccs1`: the z-score was -0.128.

As for `CNS(=O)(=O)c1ccc(NC(=O)C(CCSC)NC(N)=O)cc1` (configuration not stated), the z-score was -0.34.

With `CC1=[N+](C)N(c2ccccc2)C(=O)C1N=Cc1ccccc1Cl` (configuration not stated), the z-score came to 0.808.

On to `CCCOc1ccc(C2=NNC(=O)CC2)cc1`, for which the z-score is -0.383.

`CC(=O)C(/C=N/c1cc(-c2ccc(C)cc2)nn1-c1ccccc1)=C(\C)O` yielded a z-score of -0.251.

For the molecule `CCC(N1CCOC1=O)S(=O)(=O)c1ccc(C)cc1` (configuration not stated), the z-score is -0.148.

For `CN(C)c1ccc(NC2=C([N+](=O)[O-])CS(=O)(=O)C2)cc1`, the z-score is -0.364.

Turning to `O=C(Cn1nnc(-c2ccc(S(=O)(=O)N3CCCC3)cc2)n1)NCC1CCCO1` (configuration not stated), the z-score was -0.371.

As for `O=C(CNC(=O)c1ccco1)OCC(=O)c1ccc2c(c1)CCCC2`, the z-score is -0.0785.

For the molecule `Cc1ccc(C(=O)OCc2ccc3c(c2)OCO3)cc1S(=O)(=O)N1CCCCC1`, the z-score was -0.0379.

As for `Cc1nnc(SCC(=O)N2c3ccccc3C(C)(c3ccccc3)CC2(C)C)s1` (configuration not stated), the z-score was found to be 0.611.

Consider `Cc1cc(=O)[nH]c(SCC2(O)C3CC4CC(C3)CC2C4)n1` (configuration not stated), for which the z-score is -0.0822.

As for `O=C(Cn1ccsc1=NC(=O)C(F)(F)F)c1ccccc1`, the z-score was -0.0946.

As to `CCC(C)Sc1nc2c(cnn2-c2ccc(C)c(C)c2)c(=O)[nH]1` (configuration not stated), the z-score was 0.365.

Regarding `COc1ccc(C(=O)CSc2nnc(CNC(=O)c3ccc(OC)cc3)n2C)cc1`, the z-score is 0.0342.

`CCC(=O)Nc1nnc(SCC(=O)N2c3ccccc3CC2C)s1` (configuration not stated) gave a z-score of -0.402.

`Cc1ccc(C(=O)N(c2c(C)n(C)n(-c3ccccc3)c2=O)C(C)C)cc1` registered a z-score of -0.285.

Turning to `COc1cc2c(C#N)c(N3CCCCC3)nc(N)c2c(N)n1`, the z-score stood at 0.666.

Take `CC(=O)Nc1ccc(C(=O)CSc2nnc(Cc3ccccc3)o2)cc1`: the z-score worked out at 0.607.

Turning to `Cc1cc(C)nc(SCc2ccc(C(=O)N/N=C3\CC(C)CC(C)(C)C3)cc2)n1` (configuration not stated), the z-score was -0.372.

Turning to `CNC(=O)CCCCCNS(=O)(=O)c1ccc(C)cc1`, the z-score came out at 0.0156.

`O=C(O)CCC(=O)N1CCc2cc(S(=O)(=O)N3CCC(Cc4ccccc4)CC3)ccc21` yielded a z-score of -0.373.

In turn, `COc1ccc(C(C)NC(=O)c2ccc(Cl)cc2)cc1OC` (configuration not stated) gave a z-score of -0.153.

`O=C(O)[C@H](CO)Nc1ncnc2sc3c(c12)CCC3`: the z-score is -0.0389.

Regarding `Cc1c(NC(=O)/C(=C\c2ccccc2)NC(=O)c2ccccc2)c(=O)n(-c2ccccc2)n1C`, the z-score was -0.0434.

The molecule `COc1ccccc1-c1noc(-c2ccccc2C(=O)Nc2cccnc2)n1` registered a z-score of 0.337.

Turning to `CC(=O)N/C(=C\c1ccc(F)cc1)C(=O)OC(C)C`, the z-score amounted to 0.09.

For `CCOC(=O)CSc1ccc2nnc(-c3ccncc3)n2n1`, the z-score amounted to 0.0256.

As to `O=C(N/N=C/c1ccc(OC(F)F)cc1)c1ccc(CSc2nc3ccccc3[nH]2)cc1`, the z-score is -0.217.

`O=C(Nc1ccccc1)O/N=C(\c1ccccc1)c1ccccn1`: the z-score was -0.139.

As for `CCOC(=O)c1c(/N=C/c2ccc(O)cc2O)sc2c1CCC2`, the z-score is -0.175.

Molecule `O=C1C=C(c2ccccc2)C(=O)N1Nc1ccccc1` yielded a z-score of 0.219.

With `Cc1ccc(C(=O)Nc2ccc(OCc3ccccc3)cc2)cc1[N+](=O)[O-]`, the z-score was -0.113.

`c1ccc(-n2nnnc2SCCCSc2nc3ccccc3s2)cc1` came in with a z-score of -0.246.

For the molecule `CCN(CC)c1ccc(NC(=O)CN2CCN(CC(=O)Nc3ccccc3F)CC2)cc1`, the z-score is -0.382.

As to `Cc1sc2ncnc(SC(C)C#N)c2c1C` (configuration not stated), the z-score is -0.254.

The molecule `O=C(c1ccccc1Cl)N1CCc2ccccc2C1` returned a z-score of -1.42.

Consider `COc1ccc(OCC(O)Cn2c(Br)nc3c2c(=O)[nH]c(=O)n3C)cc1` (configuration not stated), for which the z-score was 0.131.

`CCc1nnc(NC(=O)c2ccc(COc3ccc(C)cc3)o2)s1` came in with a z-score of -0.137.

In the case of `CC1=C(C(=O)OCc2ccc3c(c2)OCO3)C(c2ccccc2)NC(=O)N1` (configuration not stated), the z-score was -0.247.

`C=CCNC(=S)NNC(=O)c1ccc(OCC(C)C)cc1` had a z-score of -0.0226.

Consider `COc1ccc(NS(=O)(=O)c2ccc(NC(=S)NC(=O)CC(C)C)cc2)cc1`, for which the z-score is 0.22.

`O=C(Nc1ccc(SC(F)F)cc1)C1=COCCO1` had a z-score of 0.0433.

Consider `O=C1CCc2cc(S(=O)(=O)N3CCCC3C(=O)N3CCN(c4ccccc4)CC3)ccc2N1` (configuration not stated), for which the z-score was -0.179.

The molecule `O=C1C2C3C=CC(C3)C2C(=O)N1c1nccs1` (configuration not stated) had a z-score of 0.154.

Molecule `Cc1c(Cl)c([N+](=O)[O-])nn1CCCC(=O)Nc1cc(Oc2ccccc2)cc([N+](=O)[O-])c1` returned a z-score of 0.587.

For `COCCn1nnnc1CN(Cc1ccco1)Cc1cc2cc3c(cc2[nH]c1=O)OCO3`, the z-score is 0.0701.

As for `CCC(Sc1nc2ccccc2c2nc3ccccc3n12)C(=O)NCc1ccco1` (configuration not stated), the z-score turned out to be 0.508.

Consider `CCOC(=O)c1ccccc1NC(=O)Cn1cnc2c1c(=O)n(C)c(=O)n2C`, for which the z-score was -0.772.

Turning to `N#Cc1c(-c2ccco2)cc(C2CC2)nc1N`, the z-score was found to be 0.088.

For the molecule `CC(=O)C1=C(C)OC(N)=C(C#N)C1c1cc2cccc(C)c2nc1Cl` (configuration not stated), the z-score was -0.0744.

Turning to `O=C(O)c1ccccc1C1=Nc2ccc(O)cc2Oc2cc(O)ccc21`, the z-score was -0.969.

`COCCNC(=O)c1ccccc1NC(=O)COc1ccccc1` yielded a z-score of 0.0962.

In turn, `Cc1cccc(Nc2nc(N)c([N+](=O)[O-])c(N3CCN(C)CC3)n2)c1` gave a z-score of -0.53.

In the case of `Nc1nc(CSc2nnnn2-c2ccccc2)nc(N2CCCc3ccccc32)n1`, the z-score was determined as 0.0139.

`CCCS(=O)(=O)N1CCN(C(=O)c2cccc(OC)c2)CC1` showed a z-score of -0.147.

Turning to `NC(=O)C(c1cccc(Cl)c1)c1ncc(C(F)(F)F)cc1Cl` (configuration not stated), the z-score is -0.0407.

Turning to `COC(=O)C1=C(C)NC(=O)/C1=C\c1cc(C)n(-c2cccc(C)c2)c1C`, the z-score was 0.279.

`CC(=O)Oc1ccc(N2C(=O)C3C4C=CC(CO)(O4)C3C2=O)cc1` (configuration not stated) registered a z-score of -0.261.

The molecule `COC(=O)COc1ccc(S(=O)(=O)NCCC2=CCCCC2)cc1` gave a z-score of -0.367.

Turning to `CCOC(=O)c1ccc(Oc2nc(NC)nc(Nc3ccccc3)n2)cc1`, the z-score was -0.255.

As to `CC(C)(C)NS(=O)(=O)CC12CCC(CC1=O)C2(C)C` (configuration not stated), the z-score is -0.31.

For `O=C(CSc1nnc(SCc2ccccc2)s1)N/N=C/C=C/c1ccccc1[N+](=O)[O-]`, the z-score is -0.139.

Molecule `Cn1c(SCC(=O)N=Nc2c(O)[nH]c3ccccc23)nc2ccccc21` displayed a z-score of -0.917.

`O=C(NCc1ccco1)c1cc(-c2ccccc2)on1` had a z-score of 0.425.

As to `O=C(Nc1ccccc1-c1ccccc1)C(c1ccccc1)c1ccccc1`, the z-score was -0.166.

With `CCN(CC)C(=O)CSc1nnc(-c2ccncc2)n1N`, the z-score stood at 0.408.

In turn, `N/C(Cc1cccs1)=N\OC(=O)COc1ccccc1Cl` returned a z-score of -2.93.

As to `CCN(CC)S(=O)(=O)c1ccc(C(=O)OCC(=O)Nc2sc3c(c2C#N)CCCCC3)cc1`, the z-score is -0.159.

Take `CCCOc1ccc(C2NC(=O)NC(c3ccccc3)=C2C(C)=O)cc1OCC` (configuration not stated): the z-score is -0.631.

As for `CC1CCCN(C(=O)N2c3ccccc3Sc3ccccc32)C1` (configuration not stated), the z-score was -0.291.

With `O=C(Nc1ccncc1)c1ccccc1F`, the z-score came to 0.631.

On to `CCSc1nc2c(c(=O)n1-c1ccc(F)cc1)SCC2`, for which the z-score was -0.944.

`CN(C)c1ccc(C(=O)Nc2nc3c(s2)CCCC3)cc1` displayed a z-score of 0.874.

The molecule `COc1ccccc1NC(=S)N1CCOCC1` showed a z-score of -0.186.

The molecule `O=C(Cc1nc2ccccc2[nH]1)N/N=C/c1ccccc1` gave a z-score of -0.00943.

`COc1ccc(-c2c(NC(C)=O)n(C)c3ccccc3c2=O)cc1` registered a z-score of -0.198.

In turn, `CCOC(=O)N1CCC(NC(=O)c2ccc(NC(=O)C3CCCO3)cc2)CC1` (configuration not stated) came in with a z-score of 0.0351.

The molecule `O=C(NCc1ccccc1)c1cc(-c2ccco2)on1` displayed a z-score of -0.269.

As to `Cc1ccc(SCC(=O)NCCSCc2ccccc2)cc1`, the z-score is -0.401.

For the molecule `CCOc1ccc(/C=C2\SC(N3CCc4ccccc4C3)=NC2=O)cc1`, the z-score is -0.1.

As to `COc1ccc(C(C)N2CC34C=CC(O3)C(C(=O)O)C4C2=O)cc1` (configuration not stated), the z-score is 0.302.

With `COc1ccc(N2C(=O)CN=C2Nc2nc(C)cc(C)n2)cc1`, the z-score worked out at 0.953.

The molecule `Cc1ccc(NC(=O)c2cc(-c3ccco3)on2)cc1C` returned a z-score of 0.266.

As for `Cc1ccc(Nc2cc(C)nc(-c3ccccc3O)n2)cc1`, the z-score is -1.47.

`COC(=O)c1c(NC(=O)C2SC(=NC3CCCCC3)C(C(N)=O)=C2N)sc2c1CCCC2` (configuration not stated): the z-score came out at 0.402.

With `CC(C)(C)c1ccc2c(c1)C(=O)c1ccccc1C2=O`, the z-score is -0.283.

With `Cc1csc(NC(=O)Nc2cccc(Cl)c2)n1`, the z-score came to 0.398.

Consider `O=C(CC(=O)Nc1ccc(Cl)c(Cl)c1)N/N=C/c1ccc(O)cc1`, for which the z-score was -0.913.

For `O=C1c2ccccc2-c2nc3ccccc3n21`, the z-score was -1.14.

The molecule `COc1ccc(CCNC(=O)c2n[nH]c(=O)c3ccccc23)cc1` had a z-score of 0.669.

Molecule `Cc1cc(C)cc(NC(=O)CN(C)S(=O)(=O)c2cccc3nsnc23)c1` gave a z-score of -0.384.

In turn, `CC(C(=O)Nc1ccc(F)c(F)c1F)N1CCCCCC1` (configuration not stated) gave a z-score of 1.62.

These data come from PubChem BioAssay AID488969 (Vanderbilt High Throughput Screening Facility, 2010).
